# Measurements published in the supplement of paper PMC8728848.
# This excerpt belongs to a sample that is enriched for the strongest signals.
# System: Gal(b1-4)GlcNAc(b1-3)Gal(b1-4)[Fuc(a1-3)]GlcNAc(b1-3)Gal(b1-4)[Fuc(a1-3)]GlcNAc
# Assay: glycan array binding signal (z-score within array); higher = stronger binding
# Conditions: glycan notation: IUPAC condensed, linker removed
# Summary of the method: (§1)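 The Consortium for Functional Glycomics database supplied 3228 glycan arrays, of which those lacking an available protein sequence were dropped. The binding signal, a within-array Z-score, was averaged across arrays of the same protein sequence and across linkers. Negative scores can be read as non-binding.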
row,Substance,glycan array binding signal (z-score)
1,H-Ficolin (Homo sapiens) (chain not printed),-0.097
2,CLEC-2 (Homo sapiens) (chain not printed),-0.011
3,NCAM1 (Homo sapiens) (chain not printed),-0.61
4,M-Ficolin G221F A256V (Homo sapiens) (chain not printed),-0.269

# System: Gal(b1-4)GlcNAc(b1-6)Gal(b1-4)GlcNAc
# Assay: as above
# Conditions: glycan notation: IUPAC condensed, linker removed
# Summary of the method: as §1
row,Substance,glycan array binding signal (z-score)
1,L-Ficolin (Homo sapiens) (chain not printed),-0.467
2,NCAM1 (Homo sapiens) (chain not printed),-0.082
3,Thrombomodulin Extracellular (Homo sapiens) (chain not printed),-0.428

# System: Gal(b1-4)GlcNAc
# Assay: as above
# Conditions: glycan notation: IUPAC condensed, linker removed
# Summary of the method: as §1
row,Substance,glycan array binding signal (z-score)
1,M-Ficolin (Homo sapiens) (chain not printed),-0.285
2,Collectin K1 (Homo sapiens) (chain not printed),-0.202
3,Thrombomodulin Extracellular (Homo sapiens) (chain not printed),-0.149

# System: Gal3S(b1-3)GalNAc
# Assay: as above
# Conditions: glycan notation: IUPAC condensed, linker removed
# Summary of the method: as §1
row,Substance,glycan array binding signal (z-score)
1,Gal 8-short (Homo sapiens) (chain not printed),1.77
2,FGF2 (chain not printed),-0.441
3,Galectin-8 C-terminal CRD (Homo sapiens) (chain not printed),0.203

# System: Gal3S(b1-3)[Fuc(a1-4)]GlcNAc
# Assay: as above
# Conditions: glycan notation: IUPAC condensed, linker removed
# Summary of the method: as §1
row,Substance,glycan array binding signal (z-score)
1,Gal 8 long (Homo sapiens) (chain not printed),-0.334
2,FGF2 (chain not printed),0.658
3,Thrombomodulin Extracellular (Homo sapiens) (chain not printed),-0.41
4,STIM-3 (Mus musculus) (chain not printed),3.34
